Results reported in the supplement of paper PMC4604168 (melanoma cell lines).
The list shows a part of the results. Single values are uncertain, as repeats are few or missing.

system: SkMel2; assay: cell count relative to DMSO control; melanoma cells; higher = more viable cells; settings: library dose: standard library concentration; 72 h
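Further: cells treated in 1,536-well plates, then fixed and DAPI-stained, with nuclei counted from automated high-throughput microscope images.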

Row | SMILES | cell count [%]
1 | Cc1ccc(Nc2nccc(N(C)c3ccc4c(C)n(C)nc4c3)n2)cc1S(N)(=O)=O [Pazopanib] + Cc1cc([N+](=O)[O-])ccc1NS(=O)(=O)c1cc(Cl)ccc1Cl [FH535] (first compound 2 µM, partner dose 5 µM) | 71.3
2 | O=C(/C=C/c1cccnc1)NCCCCC1CCN(C(=O)c2ccccc2)CC1 + Oc1nc(-c2ccc(C(F)(F)F)cc2)nc2c1CSCC2 [XAV939] (first compound 0.05 µM, partner dose 10 µM) | 68
3 | CC1(C)CCC(c2ccc(Cl)cc2)=C(CN2CCN(c3ccc(C(=O)NS(=O)(=O)c4ccc(N[C@H](CCN5CCOCC5)CSc5ccccc5)c(S(=O)(=O)C(F)(F)F)c4)cc3)CC2)C1 + COc1ccc(COc2ccc(Cc3cnc(N)nc3N)cc2OC)cc1 [GW2580] (first compound 2 µM, partner dose 5 µM) | 79.8
4 | CC1(C)CCC(c2ccc(Cl)cc2)=C(CN2CCN(c3ccc(C(=O)NS(=O)(=O)c4ccc(N[C@H](CCN5CCOCC5)CSc5ccccc5)c(S(=O)(=O)C(F)(F)F)c4)cc3)CC2)C1 + Oc1nc(-c2ccc(C(F)(F)F)cc2)nc2c1CSCC2 [XAV939] (first compound 2 µM, partner dose 10 µM) | 80.9
5 | O=C(/C=C/c1cccnc1)NCCCCC1CCN(C(=O)c2ccccc2)CC1 + O=C(O)C(=O)Nc1sc2c(c1C(=O)O)CCNC2 [TCS401] (first compound 0.05 µM, partner dose 8.33333 µM) | 60.5
